This is one part of the list.
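Further: jurkat cells carrying a lentiviral library of mutant zinc finger degrons fused to EGFP plus mCherry, mCherry+ cells FACS sorted, degron abundance counted by next-generation sequencing.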

In this assay the target is no compound (DMSO). As to the kind of experiment: log2 fold change of degron read counts, EGFP-low vs EGFP+ sorted cells; higher = lower degron-EGFP level without compound (poor expression or instability). The following applies: compound: DMSO control; 18 h.
Consider FCCPVCGASFTQKGNLLRHIKL, for which the “log2 fold change of degron read counts” value is -0.146.

Consider FDCDQCGAGFTQKGNLLRHIKL, for which the “log2 fold change of degron read counts” value is -1.3. Next, FNCEVCGAGFTQKGNLLRHIKL: -1.99. Turning to FHCSVCGHNFTQKGNLLRHIKL, the “log2 fold change of degron read counts” value is -0.423.

With FNCEICGHWFTQKGNLLRHIKL, the “log2 fold change of degron read counts” value is 0.472.

As for FLCPICGAVFTQKGNLLRHIKL, the “log2 fold change of degron read counts” value was -0.241. Next, FSCDQCGALFTQKGNLLRHIKL: -1.34; LKCPICGFECTQKGNLLRHIKL: -0.0518. Next, FKCPICGHHFTQKGNLLRHIKL: -0.563; FHCEVCGASFTQKGNLLRHIKL: -1.85; LYCPICGFWCTQKGNLLRHIKL: 1.99. Regarding FQCPICGHCFTQKGNLLRHIKL, the “log2 fold change of degron read counts” value was -0.0243. As to FCCPQCGARFTQKGNLLRHIKL, the “log2 fold change of degron read counts” value was -0.514. Next, FICPQCGAYFTQKGNLLRHIKL: 1.19; FRCPQCGALFTQKGNLLRHIKL: -0.023; LYCEICGFMCTQKGNLLRHIKL: 0.836. Regarding FMCNVCGAVFTQKGNLLRHIKL, the “log2 fold change of degron read counts” value was -0.892. Take FICPICGAFFTQKGNLLRHIKL: the “log2 fold change of degron read counts” value stood at 0.581. Next, FGCNICGAVFTQKGNLLRHIKL: 0.0956; FFCSVCGHDFTQKGNLLRHIKL: -0.265.

With LICPICGFKCTQKGNLLRHIKL, the “log2 fold change of degron read counts” value was 0.254. Next, FDCNICGADFTQKGNLLRHIKL: -0.5. In the case of LYCPICGFTCTQKGNLLRHIKL, the “log2 fold change of degron read counts” value was found to be 0.825. With FLCEICGATFTQKGNLLRHIKL, the “log2 fold change of degron read counts” value was -2.09. For the sequence FQCPVCGAFFTQKGNLLRHIKL, the “log2 fold change of degron read counts” value was -0.103. For FTCNVCGAGFTQKGNLLRHIKL the value was -1.03. For FYCDICGANFTQKGNLLRHIKL the value was -1.28; for FVCEICGHTFTQKGNLLRHIKL, -1.5; for FNCPICGREFTQKGNLLRHIKL, -0.911.

For the sequence FDCEVCGAEFTQKGNLLRHIKL, the “log2 fold change of degron read counts” value is -2.41.

As for FTCEICGHVFTQKGNLLRHIKL, the “log2 fold change of degron read counts” value is -0.986. With LYCNQCGFFCTQKGNLLRHIKL, the “log2 fold change of degron read counts” value is 2.11. Next, FTCNICGAQFTQKGNLLRHIKL: -1.18; FFCNVCGAVFTQKGNLLRHIKL: 0.86; FYCNQCGAWFTQKGNLLRHIKL: 1.45. Next, FACPICGRLFTQKGNLLRHIKL: -0.089; FNCEVCGALFTQKGNLLRHIKL: -1.19; LMCEICGFVCTQKGNLLRHIKL: 0.353. Take FHCPICGHAFTQKGNLLRHIKL: the “log2 fold change of degron read counts” value was -0.619. Next, FVCEQCGAPFTQKGNLLRHIKL: -2.46; FWCNICGAIFTQKGNLLRHIKL: 1.74; FICPVCGAGFTQKGNLLRHIKL: -0.0235.

FDCPVCGACFTQKGNLLRHIKL: the “log2 fold change of degron read counts” value is -0.433. For FGCNQCGAGFTQKGNLLRHIKL the value was -0.299. For FICNQCGRIFTQKGNLLRHIKL the value was 0.844. For FHCDQCGAWFTQKGNLLRHIKL the value was -0.613; for LKCEICGFDCTQKGNLLRHIKL, -0.0149; for FCCNQCGAAFTQKGNLLRHIKL, 0.00643. With FWCPICGHYFTQKGNLLRHIKL, the “log2 fold change of degron read counts” value came to 1.86. For FVCPQCGASFTQKGNLLRHIKL the value was -1.26.

Source of the values: the supplement of paper PMC12645437, “Orthogonal IMiD-Degron Pairs Induce Selective Protein Degradation in Cells” (ACS Chemical Biology, 2025).
